# Measured values: PubChem BioAssay AID488969 (Vanderbilt High Throughput Screening Facility, 2010)
# The full ranking holds about 110,000 compounds; the median of “z-score” is about -0.1, and the highest 2% start at about 2. This is one part of the list. Activity calls are given as the source filed them.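 How the source made its calls: active means z-score in the third read window above 3 or below -3; inactive means the rest.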
# Target: Metabotropic glutamate receptor 8 (Rattus norvegicus) (UniProt P70579)
# Test: rat mGluR8 modulators via GIRK flux, primary screen, cell-based, thallium flux, HTS (AID 488969)
# Conditions: HEK293 rat mGluR8, GIRK (G protein-gated inwardly rectifying potassium channel) thallium flux, FluoZin2; at 10 µM; stronger effect = higher value; submaximal glutamate (EC20) added with thallium
# UniProt P70579, sequence (P70579 whole entry, looked up): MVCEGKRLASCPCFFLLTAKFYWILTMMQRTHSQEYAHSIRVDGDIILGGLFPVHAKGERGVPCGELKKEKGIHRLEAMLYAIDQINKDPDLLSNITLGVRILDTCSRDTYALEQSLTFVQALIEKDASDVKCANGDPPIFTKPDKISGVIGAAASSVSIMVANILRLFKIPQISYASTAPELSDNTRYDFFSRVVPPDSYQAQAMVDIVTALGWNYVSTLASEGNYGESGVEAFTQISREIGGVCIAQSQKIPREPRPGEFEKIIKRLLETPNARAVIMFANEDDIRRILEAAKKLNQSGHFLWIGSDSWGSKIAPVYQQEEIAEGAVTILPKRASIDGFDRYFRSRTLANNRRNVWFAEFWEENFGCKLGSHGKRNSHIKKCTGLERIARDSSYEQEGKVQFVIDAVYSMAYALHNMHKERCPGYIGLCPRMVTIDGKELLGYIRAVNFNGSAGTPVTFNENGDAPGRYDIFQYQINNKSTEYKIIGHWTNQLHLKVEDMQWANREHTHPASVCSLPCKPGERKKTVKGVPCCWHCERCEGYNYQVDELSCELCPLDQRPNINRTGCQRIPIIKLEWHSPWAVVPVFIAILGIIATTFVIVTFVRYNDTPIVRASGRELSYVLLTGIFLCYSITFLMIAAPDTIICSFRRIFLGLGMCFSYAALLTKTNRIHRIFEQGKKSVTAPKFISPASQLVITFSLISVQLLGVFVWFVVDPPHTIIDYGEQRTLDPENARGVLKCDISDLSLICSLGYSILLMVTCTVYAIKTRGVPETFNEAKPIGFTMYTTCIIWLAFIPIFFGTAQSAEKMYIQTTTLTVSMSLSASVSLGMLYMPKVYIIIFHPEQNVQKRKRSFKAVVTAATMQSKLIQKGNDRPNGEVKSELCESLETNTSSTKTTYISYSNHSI
row,SMILES,z-score
1,O=C1/C(=C/c2cccc3ccccc23)CCCc2ccccc21,-0.0381
2,O=C(CN1CCN(c2ccccc2)CC1)Nc1nnc(-c2ccccc2)s1,0.193
3,Cc1nc2sc(-c3ccccc3)cc2c(=O)n1-n1cccc1,0.432
4,COc1cc2c(cc1NC(=O)COC(=O)[C@@H](NS(=O)(=O)c1cccc(Cl)c1)C(C)C)oc1ccccc12,-0.298
5,Cc1occc1-c1nnc(SCC(=O)NCc2cccs2)n1CC1CCCO1 (stereo not drawn),0.641
6,CCOc1ccc(C(=O)NCC(=O)OCc2c(F)cccc2Cl)cc1,-0.282
7,CSCC[C@H](NC(=O)C1CCN(S(=O)(=O)c2ccc(C)cc2)CC1)C(=O)NCC1CCCO1 (stereo partly drawn),0.57
8,COc1ccc(OC)c2sc(NC(=O)C3COc4ccccc4O3)nc12 (stereo not drawn),0.957
9,CCOC(=O)c1sc2nc(NC(=O)C3CC3)sc2c1C,0.658
10,CCN1CCN(C(=O)CN(CCc2ccccc2)S(C)(=O)=O)CC1,0.37
11,CN(C)C(=O)CSCc1c(Cl)cccc1Cl,0.281
12,CCOC(=O)c1c(N)sc2c(OC)c(Br)ccc12,0.484
13,Cc1ccc(S(=O)(=O)/N=C(\c2ccc(F)cc2)n2c(C)nc3ccccc32)cc1,-0.0726
14,COc1ccc(-c2nsc3c(N4CCCC4)ncnc23)cc1,-0.106
15,COc1ccc(-c2cc(C(=O)Nc3sc4c(c3C#N)CCCC4)c3ccccc3n2)cc1,0.233
16,CCn1c(NC(=O)c2cccs2)c(-c2cccs2)c(=O)c2ccccc21,-0.0463
17,COC(=O)C(C)Oc1ccc2c(-c3cccc([N+](=O)[O-])c3)cc(=O)oc2c1 (stereo not drawn),-0.00225
18,COCCOC(=O)C1=C(C)NC(=O)NC1c1c(F)cccc1Cl (stereo not drawn),-0.498
19,CCOP(=O)(OCC)C(O)c1cc(OC)c(OC)c(OC)c1 (stereo not drawn),-0.164
20,COc1ccc(OC)c2[nH]c(=O)c(CCNS(=O)(=O)c3ccc(Cl)cc3)cc12,-0.132
21,O=C(c1ccccc1)N1CCN(c2ncnc3c2cnn3-c2ccccc2)CC1,-0.162
22,CC1CCC(NC(=O)C2(C)CCC(=O)N2Cc2cccnc2)CC1 (stereo not drawn),0.0758

row,SMILES,z-score
1,CCOC(=O)c1c(NC(=O)COC)sc(C(C)=O)c1C,-0.116
2,CSc1nc(C)cc(OCNC(=O)c2cccs2)n1,-0.288
3,C/C(=N\NC(=O)c1ccccc1O)c1c(O)cc(C)oc1=O,-0.19
4,CCOc1ccc(NC(=O)CN(C)c2nnnn2-c2ccccc2)cc1OCC,-0.132
5,CC(=O)N/C(=C/c1ccc(Cl)cc1)C(=O)NCCc1c[nH]c2ccccc12,-0.192
6,CC(C)(C)C(=O)NC1CCN(S(C)(=O)=O)CC1,0.136
7,CNC(=O)c1sc(-c2cccnc2)nc1C,-0.118
8,CCC(C)NCCCOc1c(C)cc(C)cc1Br (stereo not drawn),0.308
9,Cc1ccc2c(Cl)cc(Cl)c(OCC(=O)NCc3ccco3)c2n1,active: 3.48
10,Cc1ccc(NC(=O)COC(=O)CCc2c[nH]c3ccccc23)cc1[N+](=O)[O-],0.0343
11,O=C(NC(NC(=S)Nc1ccc(Cl)c(Cl)c1)C(Cl)(Cl)Cl)c1ccco1 (stereo not drawn),0.0384
12,CCc1c(C)sc(NC(=O)c2cc(-c3cc(OC)ccc3OC)on2)c1C#N,-1.03
13,C[n+]1ccc(/C=C/c2ccc(Br)cc2)cc1,0.0384
14,O=[N+]([O-])c1cc(-c2nnc(Nc3ccc(O)cc3)c3ccccc23)ccc1N1CCOCC1,-0.799
15,O=S(=O)(c1ccc(Oc2ccc(-c3nnco3)cc2)nc1)N1CCC(Cc2ccccc2)CC1,0.122
16,Cc1ccc(C(=O)COc2ccccc2-c2ccccc2)cc1,-0.229
17,CC(C)Oc1ccc(N2CC(C(=O)Nc3ccc4c(c3)OCO4)CC2=O)cc1 (stereo not drawn),0.0701
18,CN(C)S(=O)(=O)CC12CCC(CC1=O)C2(C)C (stereo not drawn),-0.67
19,Cc1ccccc1-n1c(Cn2c(=O)sc3ccccc32)nnc1SCC(=O)N1CCOCC1,-0.558
20,O=C(COC(=O)c1cccs1)c1ccc2ccccc2c1,-0.443
21,COc1ccc(C(=O)Nc2ccc(Oc3nc(C)nc4sc(-c5ccccc5)cc34)cc2)cc1OC,-0.0336
22,O=c1c2ccccc2[nH]c(=S)n1CCC1=CCCCC1,0.577

row,SMILES,z-score
1,COc1ccc(C2C(C(=O)c3sc(C)nc3C)=C(O)C(=O)N2CCN2CCOCC2)cc1 (stereo not drawn),1
2,Cc1cc(/C=N/n2cnnc2)c(C)n1-c1cccc(Cl)c1,0.213
3,COc1ccccc1N1CCN(Cc2ccc(OC)c3ccccc23)CC1,-0.309
4,NNC(=O)c1ccc(COc2ccc3c(c2)CCC3)o1,-0.212
5,CCOC(=O)C1CCCN(C(=O)c2ccc(CS(=O)(=O)Cc3ccccc3C)o2)C1 (stereo not drawn),0.059
6,CCC(=O)Nc1cc(-c2nnc(OC)c3ccccc23)ccc1N1CCOCC1,-0.0672
7,COc1ccc(CNC(=O)COC(=O)c2cccnc2Nc2cccc(C(F)(F)F)c2)cc1,0.199
8,COc1cccc(C(=O)CN2CCN(S(=O)(=O)c3cccc([N+](=O)[O-])c3)CC2)c1,-0.00706
9,Cc1ccc(NC(=O)CCN2CCc3ccccc3C2)cc1,0.0332
10,CN(Cc1ccccc1)Cc1nc2c([nH]1)c(=O)n(C)c(=O)n2C,1.55
11,C=C(C)CNC(=S)N/N=C(\C)c1ccc(OC)cc1,-1.56
12,CCCOC(=O)NC1CCS(=O)(=O)C1 (stereo not drawn),0.764
13,CC1(C)CC2CC(C)(CN2C(=O)COC(=O)Cn2[nH]c(=O)c3ccccc3c2=O)C1 (stereo not drawn),0.177
14,O=C(CCc1ccccc1)Nc1nnc(-c2ccc3c(c2)CCCC3)o1,-0.145
15,COC(=O)c1ccc(NC(=O)C2CCCN2S(=O)(=O)c2ccc(F)cc2)cc1 (stereo not drawn),-0.134
16,CCC(=O)Nc1nc(C)c(C(=O)NC2CCCCC2)s1,-0.247
17,O=C(c1ccco1)[C@@H]1[C@@H]2C(=O)N(c3ccc(F)cc3)C(=O)[C@@H]2C2c3ccccc3C=CN21 (stereo partly drawn),-0.228
18,O=C1CC(c2cccs2)CC(O)=C1C=NCCN1CCNCC1 (stereo not drawn),-0.472
19,COC(=O)N/N=C/c1cn(CC(C)COc2ccccc2)c2ccccc12 (stereo not drawn),0.0657
20,CC(C)(C)S(=O)(=O)c1cnc2c(-c3ccc(Cl)cc3)cnn2c1N,-0.395
21,Cc1ccc(OCc2nnc(SCc3cc(=O)[nH]c4ccccc34)o2)cc1,-0.236
22,O=C(Cn1c(=O)oc2cc(S(=O)(=O)N3CCCC3)ccc21)NCc1ccc(F)cc1,-0.0122

row,SMILES,z-score
1,CCOC(=O)c1[nH]c(C)c(C(=O)Nc2ccc3c(c2)OCCO3)c1C,-0.196
2,Cc1ccc(C(=O)CNc2ccc(C)c(Cl)c2)cc1,-0.129
3,CCN(CC)c1ccc(NC(=O)CCCCCN2C(=O)c3ccccc3C2=O)cc1,-0.712
4,COC(=O)c1cc(OC)c(OC)cc1NC(=O)Cn1nnc(-c2ccccc2Cl)n1,-0.0538
5,CCCNC(=O)CSc1nnc(-c2ccccc2Br)n1-c1cccc(C(F)(F)F)c1,-0.103
6,CCCn1c(C(O)c2ccc3c(c2)OCO3)nc2ccccc21 (stereo not drawn),-1.87
7,Cc1cc(-c2cccs2)c2c(n1)sc1c(=O)[nH]c(=O)[nH]c12,-0.325
8,O=C(CSc1nc(-c2ccccc2)cc(=O)[nH]1)N1CCOCC1,-0.697
9,CCCOC(=O)c1ccc(-c2ccc(C=O)o2)cc1,-0.605
10,C/C(=C\C(=O)c1ccc(C)cc1)Nc1ccc(N2CCOCC2)cc1,-0.391
11,CCN(CC)CCn1c(=N)n(CCOc2ccccc2)c2ccccc21,0.928
12,O=C(Nn1c(-c2ccc(Cl)cc2)nc2ccccc2c1=O)c1cccnc1Cl,-0.0234
13,O=C(N1CCCCCC1)N1CCN(S(=O)(=O)N2CCOCC2)CC1,0.451
14,O=C(NCCc1ccccc1)c1ccc(NC2=NC3CS(=O)(=O)CC3S2)cc1 (stereo not drawn),0.062
15,Cc1cccc(-n2c(=O)c(C#N)cc3c(=O)n4ccccc4nc32)c1,0.441
16,O=C(Cn1cnc([N+](=O)[O-])n1)N/N=C/c1ccc2ccccc2c1,1.94
17,O=C(Nc1sc2c(c1C(=O)O)CCCCC2)c1ccco1,-0.14
18,CC(C)NC(=O)NC(=O)COc1c(F)c(F)cc(F)c1F,-0.224
19,CCC(CO)NCc1ccc(OC2CCCC2)cc1 (stereo not drawn),0.112
20,COc1ccc(CC(CC(=O)O)C(=O)Nc2ccc(OC)cc2)cc1 (stereo not drawn),-0.208
21,Cc1nnc(SCCn2c(N3CCN(Cc4ccccc4)CC3)nc3c2c(=O)[nH]c(=O)n3C)s1,-0.0178
22,COc1cc2[nH]c(=O)n(CCC(=O)NCCC(C)C)c(=O)c2cc1OC,0.171

row,SMILES,z-score
1,CCC(C)C(NC(=O)c1ccccc1NC(=O)c1ccco1)C(=O)O (stereo not drawn),0.0664
2,COCCCNC(=O)c1ccc(Cn2c(=O)c3ccccc3n(Cc3ccccc3C#N)c2=O)cc1,-0.126
3,CCCC(=O)Nc1ccc(Cl)c(NC(=O)CC)c1,0.149
4,COc1ccc2c(c1)[nH]c1c(=O)n(Cc3ccco3)cnc12,-0.0841
5,O=C(O)CSc1cc(C(F)(F)F)nc(-c2ccccn2)n1,-0.0962
6,Cc1ccc(S(=O)(=O)Cc2ccc(C(=O)NCc3ccc4c(c3)OCO4)o2)cc1,-0.326
7,Nc1[nH]c(=S)[nH]c(=O)c1-c1ccccc1,2.2
8,Cc1ccc(/C(O)=C2\C(=O)C(=O)N(CCCN(C)C)C2c2ccccn2)cc1 (stereo not drawn),0.768
9,COC(=O)c1sc2nc(C)cc(-c3ccccc3)c2c1N,-0.0404
10,CCN1CCN(c2cc(-c3ccccc3)nc3cc(-c4cccc(F)c4)nn23)CC1,-0.17
11,COc1ccc(OC)c(NC2c3ccccc3C(=O)N2Cc2ccc3c(c2)OCO3)c1 (stereo not drawn),-0.654
12,N#Cc1ccccc1NC(=O)c1ccc(-c2ccccc2Cl)o1,0.136
13,Cc1ccccc1NC(=O)CCN1C(=O)CSC1=O,0.157
14,O=C(c1cc2ncc(Br)cn2n1)N1CCOCC1,-0.556
15,CN(C)S(=O)(=O)c1ccc(N2CCCC2)c(C(=O)NC(c2ccccc2)c2ccccc2)c1,0.126
16,O=C(CN(C(=O)CSc1nc2ccccc2o1)c1cccc(F)c1)NC1CCCCC1,-0.136
17,O=C(NCCc1ccccc1F)C(=O)Nc1nccs1,-0.00522
18,CCOC(=O)c1sc(NC(=O)CSc2nc3c(c(-c4ccc(OC)cc4)c2C#N)CCCC3)c(C#N)c1C,-0.231
19,Cc1ccc(N(CC(=O)N2CCc3ccccc32)S(=O)(=O)c2cccs2)cc1,1.1
20,Cc1ccc(C(=O)Nc2ccc(O)cc2C(=O)O)cc1C,-0.288
